# In PubChem BioAssay AID624296 (National Center for Advancing Translational Sciences (NCATS), 2012):
# Several values for one entry are separate records, joined by “and”; a condition that tells them apart may be missing. Equal values may be shown once. Among all 350,000 compounds or so, about 9,900 (2.8%) were called active. Inconclusive means that the source gave no clear call. Such entries were picked first, then a sample of the others. Calls follow the shape of the dose curve; as a rule, active = well fitted activation curve with a large enough effect; inconclusive = small, poorly fitted or top-dose-only effect; inactive = no such curve, though single readings can be large or run the other way. Potencies beside an inconclusive call are fits to weak or partial responses and may not hold up.
# Assay: A quantitative high throughput screen for small molecules that induce DNA re-replication in MCF 10a normal breast cells. Also: nearly all actives have a fitted effect of over 50% in size. As to activity, positive = re-replication: % of control where 0% means no effect.
# Conditions: MCF 10A DNA re-replication, Hoechst nuclear intensity, 48 h; activity, positive = re-replication: at 46.1 µM (top of the series)
# Potency is read from the fitted curve at half-maximal effect; tags tell the direction and shape of the fitted curve.
Structure (SMILES),Potency,"activity, positive = re-replication"
S=c1[nH]nc(C2CCCCC2)n1/N=C/c1ccncc1,"inconclusive: 8.2 µM [activator, partial curve]",–
COc1ccc2cc(CCC(C)=O)ccc2c1,"inactive and inconclusive: 4.61 µM [activator, single point]",–
O=C(CN1CCCC1)Nc1sc2c(c1C(=O)Nc1ccc(Br)cc1)CCC2,"inconclusive: 6.51 µM [activator, single point]",–
O=C(C[n+]1ccccc1)N/N=C/c1ccc(Cl)cc1,–,inactive: -0.442%
CSc1ncnc2[nH]ccc12,–,inactive: 0.292%
CCCCC(=O)Nc1cccc(-c2nc3ncccc3o2)c1,–,inactive: 13.2%
CCOC(=O)c1ccc(NC(=O)CC2S/C(=N/N=C/c3c[nH]c4ccccc34)NC2=O)cc1 (centres undefined),"inconclusive: 25.9 µM [activator, single point]",–
O=C(NCC1CCCO1)c1cccc(S(=O)(=O)N2CCOCC2)c1 (centres undefined),–,inactive: -0.185%
COc1ccccc1N1CCN(C/C(C)=C/c2ccccc2)CC1,–,inactive: 4.22%
O=C(CSC1=NCCS1)Nc1ccc2ccccc2c1,"inconclusive: 4.11 µM [activator, full curve]",–
COc1cc(/C=C(\C#N)c2ccccn2)ccc1OCC(=O)Nc1cccc(C(F)(F)F)c1,"inconclusive: 29.1 µM [activator, single point]",–
CCOc1ccc(CCNC(=O)c2cccc(S(=O)(=O)N3CCCCC3)c2)cc1OCC,"inconclusive: 32.6 µM [activator, partial curve, poor fit]",–
CC(=O)c1ccc(NC(=O)c2ccc(CSc3ccccc3)o2)cc1,"inconclusive: 29.1 µM [activator, single point]",–
O=C(Nc1ccc(-c2noc(-c3cccs3)n2)cc1)c1cccnc1,"inconclusive: 16.4 µM [activator, single point]",–
COc1ccc(C(=O)Nc2ccnn2C2CCN(Cc3cn(C)nc3C)CC2)cc1,"inconclusive: 6.51 µM [activator, single point]",–
CCc1c(C)c(C#N)c2nc3ccccc3n2c1N(C)C,"inconclusive: 8.2 µM [activator, partial curve]",–
COc1ccc(C(=O)N2c3ccccc3CC2C)cc1OC (centres undefined),"inconclusive: 2.31 µM [activator, partial curve, poor fit]",–
O=C(NC(Cc1c[nH]c2ccccc12)C(=O)N/N=C/c1ccc(Br)cc1)c1cccs1 (centres undefined),"inconclusive: 18.4 µM [activator, partial curve, poor fit]",–
CCOC(=O)c1sc(NC(=O)c2c(C)nn(Cc3ccccc3)c2C)cc1C,"inconclusive: 11.6 µM [activator, partial curve]",–
O=c1[nH]c2ccccc2nc1C(F)(F)F,–,inactive: -1.94%
COc1ccc(NS(=O)(=O)c2ccc(-c3coc(C)n3)cc2)c(OC)c1,"inconclusive: 20.6 µM [activator, single point]",–
COc1ccc(Cl)cc1S(=O)(=O)NCCCn1ccnc1,"inconclusive: 29.1 µM [activator, single point]",–

Structure (SMILES),Potency,"activity, positive = re-replication"
CCc1ccc2c(c1)c1nnc(NN)nc1n2CC,–,inactive: -6.44%
CCc1c(C)nc2cc(-c3cccc(Br)c3)[nH]n2c1=O,"inconclusive: 18.4 µM [activator, single point]",–
N#Cc1ccc(NC(=S)NC(=O)C2CCCCC2)cc1,–,inactive: 14.1%
Cc1cc(C(=O)N/N=C/c2ccc([N+](=O)[O-])s2)c2ccccc2n1,"inconclusive: 29.1 µM [activator, single point]",–
Cc1ccc(C(=O)OCC(=O)NCc2ccccc2)cc1S(=O)(=O)N1CCCCC1,–,inactive: 1.16%
Cc1cccc2cc(CN(Cc3nnnn3Cc3ccco3)C3CCCC3)c3nnnn3c12,"inconclusive: 29.1 µM [activator, partial curve, poor fit]",–
Cc1csc(NC(=O)CSc2nnc(-c3ccoc3C)n2C(C)c2ccccc2)n1 (centres undefined),"inconclusive: 4.11 µM [activator, full curve, poor fit]",–
Cc1ccc(C(=O)C2=C(O)C(=O)N(Cc3cccnc3)C2c2ccc(Cl)cc2)o1 (centres undefined),"inconclusive: 16.4 µM [activator, partial curve, poor fit]",–
Cc1oc(-c2ccc3c(c2)OCCO3)cc1C(=O)NCC(=O)O,–,inactive: -3.78%
COc1cc(CNc2ccc3c(c2)CCC3)cc(OC)c1O,"inconclusive: 18.4 µM [activator, partial curve, poor fit]",–
CNC(=O)c1c(NC(=O)CCS(=O)(=O)c2ccc(Cl)cc2)sc2c1CCN(C(=O)OC)C2,"inconclusive: 23.1 µM [activator, single point]",–
CSc1nc(N2CCN(C)CC2)c2c(c1C#N)CC(C)(C)OC2,"inconclusive: 0.731 µM [activator, full curve, poor fit]",–
COc1ccccc1Nc1nc(-c2cccnc2)cs1,–,inactive: 3.03%
CCc1ccccc1OCCCCN1CCCC1,–,inactive: -1.17%
CCN(Cc1ccccc1)C(c1ccc(C)cc1)c1nnnn1C(C)(C)C (centres undefined),"inconclusive: 14.6 µM [activator, partial curve, poor fit]",–
CN(C)S(=O)(=O)c1ccc(S(=O)(=O)N2CCCC(C(=O)NC3CCCC3)C2)cc1 (centres undefined),–,inactive: 17.1%
C[N+](C)(C)CCC(=O)N1C/C(=C/c2ccccc2)C(=O)/C(=C\c2ccccc2)C1,"inconclusive: 1.64 µM [activator, full curve, poor fit]",–
CN(Cc1ccccc1)C(=O)c1ccc(NC(=O)Cc2ccc(NC(=O)C3CCN(C(=O)C4CCCCC4)CC3)cc2)cc1,"inconclusive: 29.1 µM [activator, partial curve, poor fit]",–
Cc1cccc2cc(CN(Cc3nnnn3Cc3ccccc3)C3CCCC3)c(=O)[nH]c12,"inconclusive: 8.2 µM [activator, partial curve, poor fit]",–
COc1ccc(OCC(=O)Nc2nc3c(s2)CCCC3)cc1,–,inactive: -7.69%
CCOC(=O)C1CCN(C(=O)c2oc3ccc(S(=O)(=O)N4CCCCCC4)cc3c2C)CC1,"inconclusive: 10.3 µM [activator, partial curve, poor fit]",–
CCN(C(=O)CSc1nnc(-c2ccco2)n1CC)c1c(N)n(Cc2ccccc2)c(=O)[nH]c1=O,"inconclusive: 0.58 µM [activator, partial curve, poor fit]",–
